Assay results taken from the supplement of paper PMC3334620.
In all, about 33,000 sequences were measured (“E-score (-0.5 to 0.5)”: median about -0.032, highest 2% from about 0.36 on). Some of the results follow.

Molecular target: T1, Sko1 (UniProt Q02100)
T1 sequence: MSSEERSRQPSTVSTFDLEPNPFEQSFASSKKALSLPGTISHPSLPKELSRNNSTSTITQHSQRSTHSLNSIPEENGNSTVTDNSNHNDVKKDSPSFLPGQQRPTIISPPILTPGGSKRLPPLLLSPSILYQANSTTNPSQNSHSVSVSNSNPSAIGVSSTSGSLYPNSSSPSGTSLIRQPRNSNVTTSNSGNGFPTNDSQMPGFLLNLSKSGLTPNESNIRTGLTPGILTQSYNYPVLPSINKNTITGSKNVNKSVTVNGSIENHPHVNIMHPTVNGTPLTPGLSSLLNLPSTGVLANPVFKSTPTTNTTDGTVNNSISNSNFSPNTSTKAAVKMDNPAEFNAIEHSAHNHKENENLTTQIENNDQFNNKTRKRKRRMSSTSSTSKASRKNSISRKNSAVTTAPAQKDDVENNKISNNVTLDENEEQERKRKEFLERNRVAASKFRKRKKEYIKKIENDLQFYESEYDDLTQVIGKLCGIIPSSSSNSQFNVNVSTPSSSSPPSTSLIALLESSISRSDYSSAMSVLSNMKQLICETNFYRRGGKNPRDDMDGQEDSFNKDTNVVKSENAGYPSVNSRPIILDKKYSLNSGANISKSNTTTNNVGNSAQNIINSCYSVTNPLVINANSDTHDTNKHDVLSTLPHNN
Assay: PBM E-score (8-mer binding enrichment) (E-score (-0.5 to 0.5)); higher = stronger / more preferred TF binding; most listed sequences are background and not binding sites
Conditions: protein concentration: 200 nM; construct: GST-full length
Procedure, shortened: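 Bound GST-tagged yeast transcription factors, applied at about 100-200 nM to double-stranded universal all-10-mer Agilent arrays, were detected with fluorescent anti-GST. Scans were normalised with masliner. A modified Wilcoxon-Mann-Whitney statistic, the E-score, was assigned to each ungapped eight-base word pooled with its reverse complement by the Universal PBM Analysis Suite.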

Sequence	PBM E-score
ACTAGTGC	-0.13
ACACTAAC	-0.0007
CACACCCA	0.0404
CGATAGAC	-0.0874
GTCTCCAA	-0.028
GTACTAAA	0.174
CCTCCTAC	-0.194
CCGACGTA	0.415
AGTGCACA	-0.263
AATATGGC	0.0296
AGCCTGTC	-0.21
CAAAATGC	0.0774
CCATGAGA	-0.0921
GCTATGTA	0.00334
AGGGTTAT	-0.0777
ATCAGTGG	-0.0843
GTGGGATA	-0.0827
ACATTGGG	-0.126
ACCAGGCA	-0.298
ATTCTACA	0.0629
AAATTGGG	0.0184
AGAGGGCC	-0.304
TACTTAGA	0.0287
CTAACGCC	-0.0831
AGCTCTCC	-0.231

Sequence	PBM E-score
CTTTTATA	0.056
TACAACCA	0.0683
ACGAATCC	0.162
CCTTACAG	-0.0733
CCGCAGTC	-0.114
TTGATCAA	0.205
ACGGACGA	0.0958
GTTGCGGA	0.0145
CAGTAACA	0.0121
CCAAGCCC	-0.212
AGCATCTG	-0.103
ATGTTTTA	0.171
TAACCTGA	0.00764
AGAGAGCC	-0.253
CCACGGTA	-0.195
ACGCGCTG	0.0381
AATGGGGA	-0.0924
GTCACCAA	0.193
TGGGGGAA	-0.169
GACACAAC	-0.0293
AAACAGTA	0.14
GCATATGA	0.147
CGAGCCTA	-0.052
AAGAGTTA	0.0657
AATGGGCG	-0.114

Sequence	PBM E-score
CCTTTAGC	-0.148
CATACCGC	0.0364
AGCTCGTG	-0.0961
GCCTCCAC	-0.0544
AAACGTTT	0.275
CTGCACGA	-0.121
ACCGATCC	-0.218
GAGGAGAC	-0.361
CTGTGCCC	-0.185
AGTGTTCA	0.0288
ACCCGTCC	-0.237
GAAACCAA	-0.045
ACGTGCTG	0.337
AAGCGCGC	0.0289
TCCTAGAA	-0.196
ATAGGGCC	-0.211
TCCGGGCA	-0.282
CCGAGTTC	0.00182
CGATACGC	0.188
CCTCGATC	-0.22
CACCAATC	0.0369
ACGAGTCT	-0.154
CTGGCAGA	-0.122
CACGTTAG	0.2
ACAGCGGT	-0.21

Sequence	PBM E-score
GGCGTTAA	-0.0249
GTCAACTA	0.152
ATCACGGA	0.126
ACAGAGCC	-0.198
CCGTGTCG	-0.319
ACTCGATA	0.08
CATCGAAA	0.111
AATGTCGG	0.0603
CCCCTATA	-0.105
AATACGCG	0.287
TATCATCA	0.272
GAATCAGC	0.0296
ATATTGGG	-0.146
CCAAAGCG	-0.105
CATGTCAA	0.208
AGTTAACT	0.112
AATGACCC	-0.124
ATCTCAAC	0.168
ACAGGGTG	-0.322
CCCTATTA	0.00185
AGAGCGCG	-0.0798
CAGGCCAA	-0.129
CAATGAAC	0.0222
ACACCACG	0.063
ACCATGAG	-0.117

Sequence	PBM E-score
CTATCGTA	0.256
CAATTTTC	-0.0176
AGATCCTC	-0.297
AGGGGGCA	-0.346
ATCTGTTA	0.175
CGATCCCA	-0.12
AAGAAACT	0.0413
AACATAAT	0.204
ATTATGGC	0.196
CAAAATGA	0.186
GTGGTATA	0.0815
CCCCCTGA	-0.246
ACGAGCAA	-0.149
CCTTATCC	-0.205
GCCCAGGC	-0.259
ACTGCAAT	0.02
ACCACTGG	0.0723
CGCCGAAG	-0.0557
CGACCACA	-0.0731
GACGCGCC	0.143
ACTCGCGA	0.13
AGCAGCAG	-0.0363
ACAACGAA	0.0922
ACAATTCC	0.0028
ATCGTTTA	0.288

Sequence	PBM E-score
AGCTGGAG	-0.281
ATGCGCCC	-0.045
TGAATAAA	0.152
GACAGTAA	0.143
ATGAAGGG	-0.161
CGTTGGGA	0.0186
CTACGGAG	-0.193
GCCAGACC	-0.266
AGGGCTTG	-0.123
CAAGCTAC	0.0185
CGGGATAG	-0.138
ATACAAAT	0.255
TAATAGCA	-0.0248
CGATGAAG	-0.0341
AAGCATCG	-0.0304
ACCGATCT	-0.204
ATCTTCCG	0.00021
ACTGTTGG	-0.277
ATTTCTTA	0.0947
GCCCCCGA	-0.363
AGACGAAT	0.17
CCTTAACA	0.0994
AGGGGATA	-0.121
CCGCAATC	-0.102
AGAGTCTC	-0.278

Sequence	PBM E-score
ATTTAGTG	0.0842
AGGTGTAT	0.075
ATGATATA	0.279
CTACTCCC	-0.166
CGTAAACG	0.319
CTTGGGAC	-0.261
ATAGCACA	0.0512
ACGGTTAC	0.139
GACCGCCC	-0.324
CTACCGTA	0.231
ACCGTTTC	-0.0682
AAGTCTGT	0.0213
CGGGTTGC	0.0494
CCGACAGC	-0.292
AAATAAAC	0.185
ATACGAAG	0.223
CCCTTTAG	-0.303
CTACTAGA	0.0659
CAAATATG	0.128
CTAACCAG	-0.0782
AAGACGAA	0.139
TAATGCAA	0.0655
